Results from the supplement of paper PMC3334620.
Over roughly 33,000 sequences, “E-score (-0.5 to 0.5)” has its median near -0.021; the highest 2% begin near 0.32. Some of the results follow.

These sequences were tested against T1, Zap1 (UniProt P47043) (assay: PBM E-score (8-mer binding enrichment) (E-score (-0.5 to 0.5)); higher = stronger / more preferred TF binding; most listed sequences are background and not binding sites). Conditions: protein concentration: 200 nM; construct: GST-full length.
T1 sequence: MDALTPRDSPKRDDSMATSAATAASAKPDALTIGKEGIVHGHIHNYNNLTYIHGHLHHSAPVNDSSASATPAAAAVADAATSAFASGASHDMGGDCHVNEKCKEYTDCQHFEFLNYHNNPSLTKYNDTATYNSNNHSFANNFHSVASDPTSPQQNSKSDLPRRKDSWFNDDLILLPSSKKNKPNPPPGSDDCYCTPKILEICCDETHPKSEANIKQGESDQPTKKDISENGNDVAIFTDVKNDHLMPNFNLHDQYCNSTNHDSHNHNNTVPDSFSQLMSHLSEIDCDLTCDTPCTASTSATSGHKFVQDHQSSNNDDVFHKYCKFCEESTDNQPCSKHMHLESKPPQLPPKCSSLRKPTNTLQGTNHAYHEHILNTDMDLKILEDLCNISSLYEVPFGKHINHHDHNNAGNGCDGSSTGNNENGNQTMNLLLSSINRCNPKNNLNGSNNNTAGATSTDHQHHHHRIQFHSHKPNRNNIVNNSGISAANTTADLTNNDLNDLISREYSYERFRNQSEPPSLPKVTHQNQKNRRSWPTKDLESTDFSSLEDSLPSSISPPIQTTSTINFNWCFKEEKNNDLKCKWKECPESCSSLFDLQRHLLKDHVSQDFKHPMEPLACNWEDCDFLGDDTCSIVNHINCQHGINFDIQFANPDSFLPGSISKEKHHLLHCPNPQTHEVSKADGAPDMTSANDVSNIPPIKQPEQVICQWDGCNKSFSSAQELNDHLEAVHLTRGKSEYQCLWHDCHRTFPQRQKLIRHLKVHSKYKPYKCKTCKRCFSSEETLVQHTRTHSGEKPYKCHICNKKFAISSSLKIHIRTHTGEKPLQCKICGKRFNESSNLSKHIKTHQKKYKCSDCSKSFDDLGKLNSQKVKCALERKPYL
Summary of the method: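 Full-length yeast transcription factors or their DNA-binding domains, GST-tagged and expressed with PURExpress, were applied at about 100-200 nM to universal all-10-mer Agilent arrays. These arrays had been made double-stranded by primer extension on fresh or once-stripped slides. Detection used fluorescent anti-GST, normalisation used masliner, and E-scores for ungapped eight-base words pooled with reverse complements came from the Universal PBM Analysis Suite.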

Going from ATGTTTCC to CGAAGCGA, the “PBM E-score” value falls from 0.108 to -0.193.

Compared with AAACTCAA, AGAGGGAC is lower in “PBM E-score” value: 0.192 for the first, -0.253 for the second.

First: CGTGGGTC
Second: GAGTCGGA
The “PBM E-score” value of the first is higher: 0.136 for the first, -0.239 for the second.

First: GGTGCAAC
Second: AGGACGCG
The “PBM E-score” value of the first is lower: -0.066 for the first, -0.0612 for the second.

Compared with CACGACCG, AGCTCGCG is higher in “PBM E-score” value: -0.0596 for the first, 0.027 for the second.

First: ACGCCGAG
Second: AAAAGACG
The “PBM E-score” value of the first is lower: -0.0289 for the first, 0.00477 for the second.

Going from ACAAGTTA to ACGTCTGC, the “PBM E-score” value falls from 0.111 to -0.272.

Going from AGCTTATG to CAGTAGAG, the “PBM E-score” value falls from 0.00685 to -0.135.

Going from CTGGCAAG to ATTATCTC, the “PBM E-score” value falls from -0.0104 to -0.024.

Compared with AGAGCCGG, CGGTTCGA is higher in “PBM E-score” value: -0.164 for the first, 0.186 for the second.

Going from TAAGGAAA to ATTGTTAC, the “PBM E-score” value rises from -0.029 to 0.245.

Going from GGCTGGTA to AGTTGTGC, the “PBM E-score” value rises from -0.129 to 0.0703.

Compared with CCATCGGG, AGGTGCAG is lower in “PBM E-score” value: 0.074 for the first, -0.242 for the second.

Going from CCGATTCC to ATACTGGC, the “PBM E-score” value rises from -0.132 to -0.131.

Compared with AGAGCCCA, GAATTCTC is higher in “PBM E-score” value: -0.201 for the first, -0.17 for the second.

Going from GATCCACC to AACGTGGT, the “PBM E-score” value rises from -0.192 to 0.071.

First: GAAAGCCC
Second: GCTCATAC
The “PBM E-score” value of the first is higher: -0.134 for the first, -0.268 for the second.

First: ATGAAGAA
Second: AGTCTATG
The “PBM E-score” value of the first is higher: 0.0935 for the first, -0.132 for the second.

Going from TATGACGA to CTGCGGTC, the “PBM E-score” value rises from -0.0547 to 0.225.

Compared with ATCAAGCA, CCAGTATA is lower in “PBM E-score” value: 0.0882 for the first, 0.0579 for the second.

First: ATCCATAG
Second: CCTTAAAA
The “PBM E-score” value of the first is lower: -0.114 for the first, 0.145 for the second.

Compared with AAGGCACT, TGAGACAA is higher in “PBM E-score” value: -0.257 for the first, -0.0439 for the second.

First: GAACCATA
Second: CCTTGAAA
The “PBM E-score” value of the first is higher: 0.206 for the first, 0.199 for the second.

Going from ATGCGGTG to ATAAGCAA, the “PBM E-score” value rises from -0.0188 to 0.0687.

Going from TGAGTACA to CCCTATGA, the “PBM E-score” value rises from -0.0799 to 0.0442.

First: CCATTGCG
Second: CTCATTAA
The “PBM E-score” value of the first is lower: -0.126 for the first, 0.139 for the second.

Compared with TCATTGGA, TGATGAAA is higher in “PBM E-score” value: 0.132 for the first, 0.29 for the second.

Going from GCAGGAAA to CTCAGTTA, the “PBM E-score” value falls from 0.0975 to 0.079.

Compared with CCGGTAGC, AGTCTCTA is lower in “PBM E-score” value: -0.12 for the first, -0.193 for the second.

Going from AATTAGTA to CGAAGAAC, the “PBM E-score” value falls from 0.158 to 0.118.

Compared with GTGCGAGA, CGGTCGAG is lower in “PBM E-score” value: -0.128 for the first, -0.18 for the second.

Going from CTCTCTCC to ATTGCACG, the “PBM E-score” value rises from -0.251 to 0.0703.

Compared with CTCCCTGC, GAGGACGA is higher in “PBM E-score” value: -0.212 for the first, 0.0805 for the second.

Going from ACACCTCG to AAAATGGA, the “PBM E-score” value rises from 0.00328 to 0.204.

Compared with CAGTCAGC, CTTCAAAA is higher in “PBM E-score” value: -0.16 for the first, 0.0592 for the second.

Compared with CATGTACG, ACTCAATA is higher in “PBM E-score” value: 0.0271 for the first, 0.183 for the second.

Going from GAATCGAA to GCTTTATA, the “PBM E-score” value falls from 0.0223 to -0.0325.

Compared with GACCGACA, GCAATAAC is higher in “PBM E-score” value: -0.15 for the first, 0.208 for the second.

Going from ATAGTATA to AATCGTAC, the “PBM E-score” value falls from 0.246 to 0.0163.

Compared with AATAGGAC, CAGCGTTC is lower in “PBM E-score” value: 0.0955 for the first, -0.25 for the second.

Compared with GCATGGAA, AATGTATA is higher in “PBM E-score” value: -0.169 for the first, 0.0785 for the second.

First: ACGTGACA
Second: ACTGGACA
The “PBM E-score” value of the first is lower: -0.11 for the first, -0.0153 for the second.

First: GACCGAGC
Second: ACTACTCT
The “PBM E-score” value of the first is lower: -0.18 for the first, -0.0309 for the second.

Compared with AGCGTCTA, GTCCGTCA is higher in “PBM E-score” value: -0.214 for the first, 0.147 for the second.

First: ACACCGAA
Second: AGAAACCT
The “PBM E-score” value of the first is lower: 0.11 for the first, 0.116 for the second.

Going from AGCAGCAC to TACAACTA, the “PBM E-score” value rises from -0.0165 to 0.217.

Going from ATGAAACA to CTGCTGAA, the “PBM E-score” value falls from 0.18 to -0.176.

Going from AGGGGTCG to CTGTCGTC, the “PBM E-score” value falls from 0.0682 to -0.112.

Compared with GACCAGCC, AACACTAT is higher in “PBM E-score” value: -0.0721 for the first, 0.17 for the second.

Compared with AGTGTCAC, CCGTGCAA is higher in “PBM E-score” value: -0.0372 for the first, 0.0682 for the second.

Compared with AGAGTAAG, GGATGACC is higher in “PBM E-score” value: 0.0042 for the first, 0.279 for the second.

First: AACCAGGC
Second: TCGTGAGA
The “PBM E-score” value of the first is higher: 0.0767 for the first, -0.0186 for the second.

First: CTCGCACC
Second: AAAGGCGC
The “PBM E-score” value of the first is lower: -0.265 for the first, -0.0832 for the second.

Compared with TCAAGTCA, GTCCGGCA is lower in “PBM E-score” value: 0.0291 for the first, -0.162 for the second.

Going from AAGGCGAA to AAGAATTC, the “PBM E-score” value rises from -0.257 to -0.067.

Going from GTCTGAAC to ACGTTTTC, the “PBM E-score” value rises from -0.042 to -0.0317.

Compared with AGGCAACC, ATTAAAAA is higher in “PBM E-score” value: 0.203 for the first, 0.251 for the second.

Compared with ATATGAAC, ACCGGCAT is lower in “PBM E-score” value: 0.205 for the first, 0.0285 for the second.

First: CCAGTGAC
Second: GTCACGGA
The “PBM E-score” value of the first is lower: 0.00157 for the first, 0.0228 for the second.

Compared with CAGATTGG, AAGATACA is higher in “PBM E-score” value: -0.212 for the first, 0.0781 for the second.

Compared with AAGAAGTA, ATATGGGG is lower in “PBM E-score” value: -0.00592 for the first, -0.0334 for the second.

First: AGAGAGCG
Second: CACCAAGC
The “PBM E-score” value of the first is lower: -0.375 for the first, -0.164 for the second.

Compared with CAGTCCCC, ATGGGGGC is lower in “PBM E-score” value: -0.146 for the first, -0.162 for the second.

Going from GGTCTGTA to CACAAATG, the “PBM E-score” value falls from 0.171 to 0.13.

First: ACTAGACG
Second: GCGGACCC
The “PBM E-score” value of the first is lower: -0.0556 for the first, 0.212 for the second.

Going from GTACGGCA to CAACGGAA, the “PBM E-score” value rises from -0.0507 to 0.0549.

First: AGTTCCTC
Second: CCAACCGG
The “PBM E-score” value of the first is lower: -0.123 for the first, 0.16 for the second.

Going from ATAGACAC to TGGACCAA, the “PBM E-score” value falls from -0.111 to -0.127.

Going from AGATACAC to ACCGGGCT, the “PBM E-score” value falls from 0.0774 to -0.239.

Compared with GATTCGAA, GCCGATCA is lower in “PBM E-score” value: 0.0926 for the first, -0.135 for the second.

Compared with ACTAATTA, CACCATCC is lower in “PBM E-score” value: 0.233 for the first, -0.166 for the second.

First: AGATTGCT
Second: CATCACAC
The “PBM E-score” value of the first is lower: -0.268 for the first, 0.0139 for the second.

First: AAATCAGC
Second: GAACAATC
The “PBM E-score” value of the first is higher: 0.0543 for the first, -0.0113 for the second.

First: CTTCGCCC
Second: CATGCAGG
The “PBM E-score” value of the first is lower: -0.197 for the first, -0.0244 for the second.

First: AGTGATGC
Second: GTTGAATA
The “PBM E-score” value of the first is lower: -0.181 for the first, 0.062 for the second.

First: AAATGAGC
Second: ATATCCAC
The “PBM E-score” value of the first is lower: -0.12 for the first, 0.0593 for the second.

Compared with CGTACCTC, AGGCGTAT is higher in “PBM E-score” value: -0.142 for the first, -0.115 for the second.

First: ATTCGGCG
Second: CAACGCAA
The “PBM E-score” value of the first is lower: -0.208 for the first, -0.00542 for the second.

Going from GGCGAACA to ACATGGGG, the “PBM E-score” value rises from -0.0575 to -0.0388.

Compared with GCTAACAC, CCCGGCGG is lower in “PBM E-score” value: 0.00077 for the first, -0.0572 for the second.

Going from CGTCGTCC to CCCATAAG, the “PBM E-score” value rises from -0.215 to 0.236.

Compared with ACCCTAGG, AGCCTCCT is lower in “PBM E-score” value: 0.428 for the first, -0.238 for the second.

Going from AATGGCTA to CCAAAAGA, the “PBM E-score” value falls from 0.171 to 0.109.

Going from GGGTATGA to AGGCGAGC, the “PBM E-score” value falls from 0.261 to -0.189.

Compared with CACCGACG, GTTAGCAA is higher in “PBM E-score” value: -0.102 for the first, 0.17 for the second.

Compared with CAAGTTGA, GACCATCA is higher in “PBM E-score” value: -0.0363 for the first, 0.0776 for the second.
